According to PubChem BioAssay AID488969 (Vanderbilt High Throughput Screening Facility, 2010):
In all, about 110,000 compounds were measured (“z-score”: median about -0.1, highest 2% from about 2 on). The list shows a part of the results. The source made the active and inactive calls.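 The calls were made as follows: active = z-score in the third read window above 3 or below -3; inactive = the rest.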

The compounds below were run against Metabotropic glutamate receptor 8 (Rattus norvegicus) (UniProt P70579) (assay: rat mGluR8 modulators via GIRK flux, primary screen, cell-based, thallium flux, HTS (AID 488969)). Conditions: HEK293 rat mGluR8, GIRK (G protein-gated inwardly rectifying potassium channel) thallium flux, FluoZin2; at 10 µM; stronger effect = higher value; submaximal glutamate (EC20) added with thallium.
Sequence of UniProt P70579 (P70579 whole entry, looked up): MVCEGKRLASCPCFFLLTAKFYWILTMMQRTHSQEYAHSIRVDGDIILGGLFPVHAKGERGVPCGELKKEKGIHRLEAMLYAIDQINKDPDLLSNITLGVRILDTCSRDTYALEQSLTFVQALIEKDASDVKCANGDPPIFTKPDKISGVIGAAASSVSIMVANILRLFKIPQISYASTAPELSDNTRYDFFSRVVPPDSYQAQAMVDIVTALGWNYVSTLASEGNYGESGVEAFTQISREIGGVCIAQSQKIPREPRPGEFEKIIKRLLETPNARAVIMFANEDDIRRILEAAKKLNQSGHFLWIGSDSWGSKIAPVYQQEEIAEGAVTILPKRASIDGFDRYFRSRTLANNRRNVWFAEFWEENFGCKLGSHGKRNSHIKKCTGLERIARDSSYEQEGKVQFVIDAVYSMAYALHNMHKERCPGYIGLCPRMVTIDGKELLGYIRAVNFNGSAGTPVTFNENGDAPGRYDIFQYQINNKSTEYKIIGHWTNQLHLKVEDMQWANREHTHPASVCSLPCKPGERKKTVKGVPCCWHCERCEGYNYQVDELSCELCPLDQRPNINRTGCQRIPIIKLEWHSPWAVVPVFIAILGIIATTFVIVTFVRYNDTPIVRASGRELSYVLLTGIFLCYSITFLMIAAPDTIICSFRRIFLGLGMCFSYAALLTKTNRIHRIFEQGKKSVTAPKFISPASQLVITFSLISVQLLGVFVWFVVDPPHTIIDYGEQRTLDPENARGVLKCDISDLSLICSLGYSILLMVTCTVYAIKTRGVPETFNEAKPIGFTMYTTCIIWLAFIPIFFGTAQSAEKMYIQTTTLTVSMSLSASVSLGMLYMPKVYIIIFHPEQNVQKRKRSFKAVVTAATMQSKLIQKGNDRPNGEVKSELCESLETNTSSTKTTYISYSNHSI
`COC(=O)c1[nH]c2ccccc2c1NC(=O)CN1CC(C)OC(C)C1` (centres undefined) showed a z-score of 0.195. For `CC(C)(C)NC(=O)CSc1nncn1NCc1cccc2ccccc12`, the z-score was -0.0771. `Cc1cc(C)n(-c2nc3sc4c(c3c3nnc(SCC(N)=O)n23)CC(C)(C)OC4)n1` was tested, and the z-score was -0.198. Compound `C=CCNC(=O)NC(=O)COC(=O)/C(C#N)=C/c1cc(C)n(CC(C)C)c1C` has a z-score of 0.00508. Compound `CC(C)CC(=O)Nc1ccc(C(=O)Cn2nc(C(=O)O)c3ccccc3c2=O)cc1` has a z-score of -0.623. `CCOc1ccc(N(C(C)C(=O)NCc2ccco2)S(C)(=O)=O)cc1` (centres undefined) gave a z-score of -0.0829. For `COCC(O)CSc1c([N+](=O)[O-])nc(C)n1Cc1ccc(OC)c([N+](=O)[O-])c1` (centres undefined), the z-score was -0.318. `CCOc1ccccc1-n1c(SCC(=O)N2CCOCC2)nnc1-c1ccccn1` showed a z-score of 0.068. `COc1cccc(NC(=O)Cc2cccs2)c1` gave a z-score of 0.747. `CCC(C)NC(=O)COC(=O)c1cc([N+](=O)[O-])ccc1Sc1nc(C)cs1` (centres undefined) gave a z-score of -0.0186. Compound `CCOC(=O)c1ccccc1NC(=O)c1cccnc1` has a z-score of 0.208. `O=C(COC(=O)c1ccc(Cl)c(S(=O)(=O)N2CCCCCC2)c1)Nc1ccccc1` gave a z-score of -0.272. For `O=C(Nc1ccc(F)cc1)c1nc[nH]c1C(=O)Nc1ccccc1[N+](=O)[O-]`, the z-score was -0.105. For `O=C(O)c1ccc(CN2C(=O)c3ccccc3S2(=O)=O)cc1`, the z-score was 0.313. `CCOC(=O)CC1=C(C(=O)OCC)C(c2ccc(OC)cc2OC)C(C#N)=C(N)O1` (centres undefined) showed a z-score of -0.324. `O=C(Nc1ccc(Cl)c(Cl)c1)c1csc(-c2ccccc2)n1` gave a z-score of -0.162. Work on `CC(=O)Nc1ccc(NC(=O)CSc2nnc(-c3ccccc3)n2Cc2ccc3c(c2)OCO3)cc1` yielded a z-score of -1.83. For `Cn1c(=O)c2c(nc(N3CCCC3)n2CC(O)CO)n(C)c1=O` (centres undefined), the z-score was -0.206. `COC(=O)c1ccccc1OCC(=O)N1CCN(c2ccc(F)cc2)CC1` gave a z-score of -0.0501. Compound `CC(NC(=O)N(Cc1ccccc1)Cc1ccc2c(c1)OCO2)(C(F)(F)F)C(F)(F)F` has a z-score of -0.711. In the case of `CCN1CCN(c2cc(C)c3cc(NC(=O)c4ccc(OC)c(OC)c4)ccc3n2)CC1`, the z-score is reported as 0.815. For `COCCN(Cc1ccccc1)P(=O)(O)c1ccccc1OCC(=O)O`, the z-score was 0.0585. `O=C(CSc1nnc(-c2ccco2)n1Cc1ccccc1)NC(=O)NCc1ccccc1` showed a z-score of 0.18. With `Cc1cc(C)cc(-n2nnnc2SCC(=O)N2CCOCC2)c1` the z-score was 0.0627. For `COc1ccc(/C=N/Nc2nc(N3CCCC3)nc(N3CCCC3)n2)cc1`, the z-score was -0.325. In the case of `CCOC(=O)Cn1c(=O)sc2ccccc21`, the z-score is reported as 1.69. In the case of `CSc1nnc(-c2cnccn2)n1Cc1ccccc1`, the z-score is reported as -0.236. With `Cc1ccc(F)c(NC(=O)CCc2ccccc2)c1` the z-score was -0.0177. With `Cc1ccc(S(=O)(=O)Nc2ccc(-c3nc4ccc(C)cc4s3)cc2)cc1` the z-score was -0.365. In the case of `CC(C)COc1ccc(-c2cc(C(=O)NN)[nH]n2)cc1`, the z-score is reported as -0.52. `C=CCSc1nnc(NC(=O)c2nc(SCC)ncc2Cl)s1` showed a z-score of 0.107. In the case of `CC1(C)CC(=O)C2=C(C1)N(CC1CCCO1)C(=O)C2(O)C(F)(F)F` (centres undefined), the z-score is reported as -0.396. In the case of `Cc1ccc(-n2c(C)cc(C(=S)N3CCOCC3)c2C)cc1C`, the z-score is reported as -0.271. With `CCCCCC/C(=N\NS(C)(=O)=O)c1ccccc1` the z-score was -0.158. In the case of `CCOC(=O)N1CCC2(CC1)C(C#N)=C(N)OC1=C2C(=O)CC(C)(C)C1`, the z-score is reported as -0.0881. With `O=C(c1ccccc1C(=O)N1CCN(c2ccc(F)cc2)CC1)N1CCN(c2ccc(F)cc2)CC1` the z-score was 0.00077. Compound `CCOc1ccc(-n2c(SCC(=O)NCc3ccco3)nnc2-c2c[nH]c3ccccc23)cc1` has a z-score of -0.692. `CCOc1ccc(CSC(CC(=O)O)C(=O)O)cc1` (centres undefined) gave a z-score of 1.05. `CC(C)c1ccc(CN(C(=O)C2COc3ccccc3O2)C2CCS(=O)(=O)C2)cc1` (centres undefined) showed a z-score of 0.706. Work on `O=C(O)C1CC(c2ccccc2F)=NO1` (centres undefined) yielded a z-score of -0.289. `O=C(CSc1nnc(COc2cccc3cccnc23)o1)c1ccc(F)cc1` was tested, and the z-score was 1.63. Work on `CSc1cccc(NC(=O)CSc2ccc(C)cc2)c1` yielded a z-score of -0.00724. With `C=CCn1c(=S)[nH]c2nc3c(cc2c1=O)CCCC3` the z-score was active: 4.15. With `Cc1cc(C)n2ncc(C(=O)Nc3ccc4c(c3)OCO4)c2n1` the z-score was -0.266. `CCOCCCNC(=O)CS(=O)(=O)Cc1nc(-c2cccc(OC)c2)oc1C` showed a z-score of 0.653. Compound `COc1ccc(N2CCN(C(=O)Nc3ccc(S(=O)(=O)N(C)C)cc3)CC2)cc1` has a z-score of 0.0221. Work on `CCC(C)(C)n1nnnc1C(c1ccncc1)N1CCC(C)CC1` (centres undefined) yielded a z-score of 1.03. In the case of `CCOC(=O)c1cc(-c2ccc(C)cc2)n(CC(=O)NCc2ccco2)c1C`, the z-score is reported as -0.118. Compound `Cc1cc([N+](=O)[O-])c2[nH]c(C(=O)N/N=C/c3ccccc3C(=O)O)c(-c3ccccc3)c2c1` has a z-score of -0.455. `Cc1nc2cc(C(F)(F)F)ccc2n1C1CCN(C(=O)N2CCOCC2)CC1` gave a z-score of -0.127. Work on `N#C/C(=C/c1ccc(-c2ccc(Br)cc2)o1)C(=O)NC1CCCCC1` yielded a z-score of -0.159. Compound `Cc1ccc(NC(=S)Nc2ncccc2C)c(C)c1` has a z-score of 0.118. With `CCCCn1c(=O)c(CCC(=O)OCC(=O)Nc2cc(Cl)ccc2OC)nc2ccccc21` the z-score was 0.0025. In the case of `CCOC(=O)c1cc2nc(Nc3ccc(OC)cc3)sc2s1`, the z-score is reported as 0.969. Compound `Nc1ccccc1-c1nnc(SCc2ccccc2Cl)[nH]c1=O` has a z-score of -0.409. Compound `CSc1cccc(NC(=O)CSc2ccccc2)c1` has a z-score of 1.09. `O=C(Nc1ccc(Cl)cc1)N1CCC(c2nc(-c3ccccc3Cl)no2)CC1` was tested, and the z-score was -0.0366. `COc1ccccc1-c1c(NC(=O)c2ccco2)n(-c2ccccc2)nc(C)c1=O` showed a z-score of -0.192. `C=CCn1c(O)c(N=NC(=O)OC(C)(C)C)c2ccccc21` showed a z-score of 1.14. `COc1ccc(-c2cc(C(F)(F)F)nc(-n3cc(Cl)cn3)n2)cc1` showed a z-score of 0.102. `CC(C)Oc1ccccc1OCCN(C)C` gave a z-score of 0.85. `COc1cc(-c2nnn(CC#N)n2)ccc1OCc1ccccc1` was tested, and the z-score was -0.365. For `COc1ccccc1Nc1nc(-c2ccc([N+](=O)[O-])cc2)nc2ccccc12`, the z-score was -0.0715. `Cc1ccc(NC(=O)c2cc(-c3cccs3)on2)cc1` gave a z-score of 0.503. In the case of `CCOc1ccccc1Cn1c(=O)oc2ccc(C)cc21`, the z-score is reported as -0.516. For `Cc1ccc2oc(=O)c3cnn(CC(=O)NCCCOC(C)C)c3c2c1`, the z-score was -0.229. `COc1c(/C=N/Nc2nc(N3CCCCC3)nc(N3CCCCC3)n2)cccc1[N+](=O)[O-]` gave a z-score of -0.0609. With `O=C(Nc1ccccc1)N1CCCc2ccccc21` the z-score was -0.0768. `CCOc1ccc(C(CC(=O)O)NC(=O)C2c3ccccc3Oc3ccccc32)cc1` (centres undefined) was tested, and the z-score was -0.19.
